According to PubChem BioAssay (NCATS):
The inconclusive results got no clear call from the source; some entries with a clear call stand among them for comparison. For some assays here: Where the call is inconclusive, the potency comes from a doubtful curve fit. Calls of active or inactive are those of the source. The call rests on the fitted dose curve; in most records, active means well fitted curve in the direction sought with a large enough effect; inconclusive means small, poorly fitted or top-dose-only effect, or another doubt; inactive means no such curve, though single readings can be large; an effect the other way counts as inactive or inconclusive.

Legend:
CRL-7250 = normal cell line; assay: Cytotoxic Profiling of Annotated Libraries Using Quantitative High-Throughput Screening (AID 1296008); conditions: Five cell lines viability, CellTiter-Glo ATP luminescence, 48-72 h; max response: stronger effect = lower value; further: nearly all actives have a fitted effect of over 60% in size; on max response: on the % scale 0 is the no-effect control and ±100 the full control effect
Outline: (§1)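 Compounds were pin-transferred onto cells and incubated 48 or 72 hr at 37 degree Celsius, 95% humidity. CellTiter-Glo was added, plates sat 10 min at room temperature, then ATP-coupled luminescence was imaged as the viability read-out.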

HEK293 = assay: as above; conditions: Five cell lines viability, CellTiter-Glo ATP luminescence, 48-72 h; max response: stronger effect = lower value
Outline: as §1

KB-3-1 = assay: as above; conditions: Five cell lines viability, CellTiter-Glo ATP luminescence, 48-72 h; max response: stronger effect = lower value
Outline: as §1

NIH3T3 = assay: as above; conditions: Five cell lines viability, CellTiter-Glo ATP luminescence, 48-72 h; max response: stronger effect = lower value
Outline: as §1

SKOV3 = assay: Primary qHTS to identify gynecologic anti-cancer compounds using libraries of approved drugs and bioactive compounds (AID 1345084); conditions: Gynecologic cancer cell panel viability, ATPlite luminescence, 48 h; series mostly up to 57.5 µM; further: nearly all actives have a fitted effect of over 55% in size; on activity change, negative = cytotoxicity: on the % scale 0 is the no-effect control and ±100 the full control effect
Outline: (§2)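 Cells, 1,000 per well, plated 16 h, then exposed 48 h at 37 C to compounds. Viability by ATPlite luminescence after 15 min at room temperature.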

[1] = P-glycoprotein substrates identified in KB-8-5-11 adenocarcinoma cell line, qHTS therapeutic library screen (AID 1346987); further: nearly all actives have a fitted effect of over 65% in size
Outline: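 In this qHTS, P-gp-rich KB-8-5-11 cells received library compounds across a concentration range. Viability was quantified by luminescence after 72 h at 37 degree C.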

[2] = Primary qHTS for inhibitors of nuclear receptor binding SET domain protein 2 (NSD2) in an RCH-ACV wild type WT cells (2C) (AID 1645877); conditions: activity change, negative = cell killing: at 44.9 µM (top of the series); further: nearly all actives have a fitted effect of over 70% in size
C33A = assay: Primary qHTS to identify gynecologic anti-cancer compounds using libraries of approved drugs and bioactive compounds (AID 1345084); conditions: Gynecologic cancer cell panel viability, ATPlite luminescence, 48 h; series mostly up to 57.5 µM; further: nearly all actives have a fitted effect of over 55% in size; on activity change, negative = cytotoxicity: on the % scale 0 is the no-effect control and ±100 the full control effect
Outline: as §2

CAOV3 = assay: as above; conditions: Gynecologic cancer cell panel viability, ATPlite luminescence, 48 h; series mostly up to 57.5 µM
Outline: as §2

CASKI = assay: as above; conditions: Gynecologic cancer cell panel viability, ATPlite luminescence, 48 h; activity change, negative = cytotoxicity: at 57.5 µM (top of the series)
Outline: as §2

Es-2 = assay: as above; conditions: Gynecologic cancer cell panel viability, ATPlite luminescence, 48 h; series mostly up to 57.5 µM
Outline: as §2

Hek293T = assay: as above; conditions: Gynecologic cancer cell panel viability, ATPlite luminescence, 48 h, control line for the selectivity index; series mostly up to 57.5 µM
Outline: as §2

JEG-3 = assay: as above; conditions: Gynecologic cancer cell panel viability, ATPlite luminescence, 48 h; series mostly up to 57.5 µM
Outline: as §2

OV90 = assay: as above; conditions: Gynecologic cancer cell panel viability, ATPlite luminescence, 48 h; series mostly up to 57.5 µM
Outline: as §2

PA-1 = assay: as above; conditions: Gynecologic cancer cell panel viability, ATPlite luminescence, 48 h; series mostly up to 57.5 µM
Outline: as §2

Tov-21-G = assay: as above; conditions: Gynecologic cancer cell panel viability, ATPlite luminescence, 48 h; activity change, negative = cytotoxicity: at 57.5 µM (top of the series)
Outline: as §2

Tov112D = assay: as above; conditions: Gynecologic cancer cell panel viability, ATPlite luminescence, 48 h; activity change, negative = cytotoxicity: at 57.5 µM (top of the series)
Outline: as §2

[3] = Primary qHTS for inhibitors of nuclear receptor binding SET domain protein 2 (NSD2) in an isogenic RCH-ACV NSD2 p.E1099K mutant (9B) (AID 1645876); further: nearly all actives have a fitted effect of over 70% in size
[4] = Primary fluorescence-based thiol-reactive (MSTI) qHTS assay for identification of artifact compounds. (AID 1845221);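 further: thiol-reactive compounds lower the probe fluorescence signal; nearly all actives have a fitted effect of over 65% in size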
Outline: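 MSTI probe at 4 uM final in 2% DMSO/PBS pH 7.4; compounds, 1 h at room temperature in dark. Fluorescence Ex/Em 525/598 nm, normalised to Acetyl-MSTI and MSTI, fitted to 4-parameter Hill.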
Potency means the concentration at half of the fitted maximal effect; tags describe the fitted curve by direction and shape.

COc1ccc2c(c1)C[C@H](C(=O)Nc1ccc(-c3cn[nH]c3)cc1OCCN(C)C)CO2
inconclusive: Potency (HEK293) 25.9 µM [inhibitor, partial curve, poor fit] | Potency (KB-3-1) 5.8 µM [inhibitor, partial curve, poor fit] | Potency (NIH3T3) 0.411 µM [inhibitor, full curve]
inactive: Potency (SKOV3)
active: Potency (CRL-7250) 20.6 µM

COc1cc(CCC2=NN=C(NC(=O)c3ccc(N4C[C@@H](C)N[C@@H](C)C4)cc3)C2)cc(OC)c1
active: Potency [2] 5.78 µM | Potency (CRL-7250) 10.3 µM | Potency (HEK293) 18.4 µM | Potency (SKOV3) 12.6 µM | Potency (Tov-21-G) 22.4 µM
inconclusive: Potency [1] 13 µM [inhibitor, partial curve] | Potency (KB-3-1) 18.4 µM [inhibitor, single point] | Potency (NIH3T3) 11.6 µM [inhibitor, partial curve, poor fit] | Potency (C33A) 39.8 µM [cytotoxic, single point] | Potency (CAOV3) 22.4 µM [cytotoxic, single point] | Potency (CASKI) 17.8 µM [cytotoxic, partial curve, poor fit] | Potency (Es-2) 39.8 µM [cytotoxic, single point] | Potency (Hek293T) 39.8 µM [cytotoxic, single point] | Potency (JEG-3) 31.6 µM [cytotoxic, single point] | Potency (OV90) 28.2 µM [cytotoxic, single point] | Potency (PA-1) 20 µM [cytotoxic, partial curve, poor fit] | Potency (Tov112D) 20 µM [cytotoxic, partial curve, poor fit]

CC(C)NC(=O)COc1cccc(-c2nc(Nc3ccc4[nH]ncc4c3)c3ccccc3n2)c1
active: Potency [1] 8.2 µM | Potency [3] 7.42 µM | Potency (HEK293) 5.8 µM | Potency (CAOV3) 25.1 µM
inconclusive: Potency [2] 6.61 µM [inhibitor, full curve] | Potency (CRL-7250) 23.1 µM [inhibitor, single point] | Potency (KB-3-1) 20.6 µM [inhibitor, single point] | Potency (NIH3T3) 29.1 µM [inhibitor, single point] | Potency (C33A) 25.1 µM [cytotoxic, single point] | Potency (CASKI) 17.8 µM [cytotoxic, single point] | Potency (Es-2) 39.8 µM [cytotoxic, single point] | Potency (Hek293T) 17.8 µM [cytotoxic, single point] | Potency (PA-1) 25.1 µM [cytotoxic, single point] | Potency (SKOV3) 35.5 µM [cytotoxic, single point] | Potency (Tov-21-G) 25.1 µM [cytotoxic, single point] | Potency (Tov112D) 11.2 µM [cytotoxic, partial curve]

CCCCC1CCN(CCCC(=O)c2ccccc2C)CC1
active: Potency (HEK293) 16.4 µM
inactive: max response (KB-3-1) -21.4% | max response (NIH3T3) -22.9% | Potency (Es-2)
inconclusive: Potency [1] 14.6 µM [inhibitor, partial curve] | Potency (CRL-7250) 29.1 µM [inhibitor, single point] | Potency (C33A) 25.1 µM [cytotoxic, single point] | Potency (CAOV3) 31.6 µM [cytotoxic, single point] | Potency (CASKI) 15.8 µM [cytotoxic, single point] | Potency (Hek293T) 39.8 µM [cytotoxic, single point] | Potency (JEG-3) 17.8 µM [cytotoxic, single point] | Potency (OV90) 39.8 µM [cytotoxic, single point] | Potency (PA-1) 28.2 µM [cytotoxic, partial curve, poor fit] | Potency (Tov112D) 28.2 µM [cytotoxic, partial curve, poor fit]

O=C(NC(NC(=S)Nc1ccc(F)c([N+](=O)[O-])c1)C(Cl)(Cl)Cl)C(c1ccccc1)c1ccccc1 (centres undefined)
inconclusive: Potency [2] 7.65 µM [inhibitor, single point] | Potency [4] 0.446 µM [inhibitor, partial curve, poor fit] | Potency (CRL-7250) 9.68 µM [inhibitor, single point] | Potency (HEK293) 6.11 µM [inhibitor, single point] | Potency (KB-3-1) 8.62 µM [inhibitor, single point] | Potency (NIH3T3) 7.69 µM [inhibitor, single point] | Potency (C33A) 2.82 µM [cytotoxic, single point]

CN(c1ccccc1CNc1nc(Nc2ccc3c(c2)CC(=O)N3)ncc1C(F)(F)F)S(C)(=O)=O
active: Potency [4] 10.6 µM | Potency (CRL-7250) 16.4 µM | Potency (HEK293) 2.31 µM | Potency (KB-3-1) 6.51 µM | Potency (NIH3T3) 5.8 µM | Potency (C33A) 6.31 µM | Potency (Es-2) 20 µM | Potency (OV90) 8.91 µM | Potency (Tov112D) 25.1 µM
inconclusive: Potency [1] 18.4 µM [inhibitor, single point] | Potency (CAOV3) 2.24 µM [cytotoxic, full curve] | Potency (CASKI) 7.08 µM [cytotoxic, full curve, poor fit] | Potency (Hek293T) 28.2 µM [cytotoxic, single point] | Potency (JEG-3) 3.16 µM [cytotoxic, partial curve, poor fit] | Potency (SKOV3) 39.8 µM [cytotoxic, single point]

COc1ncc(Nc2ncc([C@@H](C)N3CCN(S(C)(=O)=O)CC3)cc2-c2nc(C)nc(N)n2)cc1F
inconclusive: Potency [4] 18.9 µM [inhibitor, partial curve] | Potency (CRL-7250) 0.58 µM [inhibitor, full curve] | Potency (NIH3T3) 0.731 µM [inhibitor, full curve] | Potency (C33A) 2.24 µM | Potency (JEG-3) 20 µM [cytotoxic, partial curve, poor fit] | Potency (Tov-21-G) 1.26 µM [cytotoxic, full curve, poor fit]
active: Potency [1] 6.51 µM | Potency (HEK293) 0.259 µM | Potency (KB-3-1) 9.2 µM | Potency (CASKI) 0.398 µM | Potency (Hek293T) 1.26 µM | Potency (SKOV3) 0.398 µM

Nc1ncnc2c1c(-c1ccc(Oc3ccccc3)cc1)nn2[C@@H]1CCCNC1
inconclusive: Potency [1] 23.1 µM [inhibitor, single point] | Potency (CRL-7250) 23.1 µM [inhibitor, single point] | Potency (HEK293) 16.4 µM [inhibitor, single point] | Potency (NIH3T3) 29.1 µM [inhibitor, single point] | Potency (C33A) 22.4 µM [cytotoxic, partial curve, poor fit] | Potency (CAOV3) 28.2 µM [cytotoxic, single point] | Potency (CASKI) 14.1 µM [cytotoxic, partial curve] | Potency (Es-2) 39.8 µM [cytotoxic, single point] | Potency (Hek293T) 39.8 µM [cytotoxic, single point] | Potency (OV90) 11.2 µM [cytotoxic, partial curve, poor fit] | Potency (SKOV3) 15.8 µM [cytotoxic, single point] | Potency (Tov112D) 14.1 µM [cytotoxic, partial curve]
inactive: max response (KB-3-1) -20%
active: Potency [2] 2.3 µM | Potency (PA-1) 25.1 µM

CCN(Cc1cc(Nc2nc(C)cn3c(-c4cn[nH]c4)cnc23)sn1)C(C)(C)CO
active: Potency [1] 0.411 µM | Potency [3] 0.0092 µM | Potency [2] 0.0082 µM | Potency (CRL-7250) 0.0731 µM | Potency (NIH3T3) 0.461 µM | Potency (Es-2) 3.16 µM | Potency (Hek293T) 3.55 µM | Potency (Tov-21-G) 0.355 µM
inconclusive: Potency (HEK293) 0.461 µM [inhibitor, full curve, poor fit] | Potency (KB-3-1) 0.0517 µM [inhibitor, full curve, poor fit] | Potency (C33A) 7.94 µM [cytotoxic, full curve, poor fit] | Potency (CAOV3) 39.8 µM [cytotoxic, partial curve, poor fit] | Potency (CASKI) 0.398 µM [cytotoxic, full curve, poor fit] | Potency (JEG-3) 10 µM [cytotoxic, partial curve, poor fit] | Potency (OV90) 1.78 µM [cytotoxic, full curve, poor fit] | Potency (PA-1) 0.158 µM [cytotoxic, full curve, poor fit] | Potency (SKOV3) 0.251 µM [cytotoxic, full curve, poor fit] | Potency (Tov112D) 0.178 µM [cytotoxic, partial curve, poor fit]
